Over roughly 33,000 sequences, “E-score (-0.5 to 0.5)” has its median near -0.012; the highest 2% begin near 0.27. The list shows a part of the results.
Molecular target: T1, Vhr1 (UniProt P40522)
T1 sequence: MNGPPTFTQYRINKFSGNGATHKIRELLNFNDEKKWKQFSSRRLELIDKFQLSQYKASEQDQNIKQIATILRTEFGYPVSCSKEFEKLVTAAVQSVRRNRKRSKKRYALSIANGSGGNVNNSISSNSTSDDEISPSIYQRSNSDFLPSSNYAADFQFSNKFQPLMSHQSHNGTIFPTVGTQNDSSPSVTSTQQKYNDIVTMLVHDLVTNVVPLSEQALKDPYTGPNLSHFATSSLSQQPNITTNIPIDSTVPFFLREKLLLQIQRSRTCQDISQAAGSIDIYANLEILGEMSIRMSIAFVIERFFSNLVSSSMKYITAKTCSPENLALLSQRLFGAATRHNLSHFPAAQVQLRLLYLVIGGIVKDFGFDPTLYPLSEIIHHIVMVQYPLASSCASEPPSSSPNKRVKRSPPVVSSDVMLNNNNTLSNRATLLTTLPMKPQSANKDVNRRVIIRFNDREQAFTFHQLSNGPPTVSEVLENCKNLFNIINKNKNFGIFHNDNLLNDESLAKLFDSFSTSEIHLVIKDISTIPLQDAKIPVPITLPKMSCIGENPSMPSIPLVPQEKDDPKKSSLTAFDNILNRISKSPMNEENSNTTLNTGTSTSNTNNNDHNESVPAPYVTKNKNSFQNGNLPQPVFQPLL
Experiment: PBM E-score (8-mer binding enrichment) (E-score (-0.5 to 0.5)); higher = stronger / more preferred TF binding; most listed sequences are background and not binding sites
Conditions: protein concentration: 200 nM; construct: GST-full length
In short: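 Masliner-normalised scans of fluorescent anti-GST signal were the basis for scoring. That signal came from GST-tagged yeast transcription factors applied at about 100-200 nM to double-stranded universal all-10-mer Agilent arrays on fresh or once-stripped slides. Each ungapped eight-base word, pooled with its reverse complement, received an E-score from the Universal PBM Analysis Suite.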

Sequence	PBM E-score
GCTCTACA	-0.0682
AGTACTAC	0.178
AGAGAAGC	0.0302
GGCTGGCA	-0.288
AAAATCAG	-0.0451
CAAGGTAA	0.0747
ATGGATTG	0.214
CTCTTATC	0.192
CTTATCAA	0.0621
GATTTTAA	-0.132
ACAACAGG	-0.0114
CTAAAAAA	-0.164
ATGAGTGC	0.0758
ATGCAAAT	-0.00247
AACCATCA	0.143
ATTCATAC	0.248
ATCAAGGA	0.0195
ACCGACCA	0.156
AAAGATCA	-0.0595
ACACCTAC	0.127
ATGTAAAA	-0.211
CCTTTCCC	-0.169
ACCGTCTC	0.0856
CCGTTGAC	0.0819
ATATTCAT	0.128

Sequence	PBM E-score
CATACCGG	0.108
CTGGTGTA	0.0814
CCATCTCG	0.104
ACGATTGG	-0.0471
AGCGGTTA	-0.0644
AGGGAGCG	0.0524
ATGCCTTC	-0.239
ATATCCCA	0.145
CAGTTGTA	0.0308
CGTCAATC	0.0648
AGAAGTAG	-0.116
ATTTTGGC	0.0388
ACTTTAAC	-0.178
ACTGGTTA	0.0929
ACAGGCCA	-0.0341
AGGTTGGA	0.0473
CTTTCCTA	-0.0946
ATCGTGTG	0.131
CTGTTGAA	0.0933
TACCCCGA	0.116
GTACAAAA	-0.0126
ACTCAAGG	0.245
ATTTCACC	-0.107
CAACGTTC	-0.0711
AGGCGACG	-0.145

Sequence	PBM E-score
GGGGACCC	0.00776
AATCTCCT	-0.169
CCCGTGAC	0.211
GTCGGATA	0.0181
ACTATATC	0.198
CATAGCTA	0.0366
ATGGAGAG	-0.167
CGAGGCCA	0.046
ACAAGGGC	-0.252
AGTGTAAG	0.0767
CCCTAAGG	-0.274
AGCGGAGA	0.096
TCAGTCAA	0.114
GATTGCGC	0.0275
CAGGGCGC	0.164
CGCGGAAC	0.0336
GGCGACAA	-0.0363
ACAGCCAA	-0.0902
TCTCCAGA	-0.0712
AAGAGTGA	0.0848
AGAACACT	0.108
GCGTCATA	0.0398
CTACCAAA	0.0392
ACCTGTGC	-0.13
GGTTGCTA	0.0991

Sequence	PBM E-score
CGAGTGAG	0.131
GTCTTCGA	0.00696
GACTGGGA	0.12
ATAGCGAG	-0.119
GACAGGGC	-0.0735
CTCCCAAC	-0.00407
ACTCAGCA	0.0929
CTCGTCGC	0.0225
AGGTCAAA	-0.0515
CCGGAAAC	-0.071
GGTCAGAA	-0.0961
GGAATTAA	-0.0606
CATACAAG	-0.0453
CCATGAGC	0.0512
CTCCGAAC	-0.0455
ATGTGTTG	0.229
ACTCTCAG	-0.0997
ACCCTGCT	-0.0137
CGTCGACA	0.0371
GACAAGCC	0.0205
GAGTCGAC	0.294
AGAAAGTC	-0.137
ATAAATCG	-0.0946
ACATAGTC	0.272
AGGCTTGG	-0.0677

Sequence	PBM E-score
AACCCGCA	0.123
ATGAACAC	-0.032
GCAAAGAA	-0.0293
AAAAATTT	-0.263
ACGAAAAT	0.0139
CACAGCCC	-0.0755
GTGAAGGA	-0.0414
CAAACCGA	0.0579
ACGTATGG	-0.0776
ACTTCAAG	0.0592
ACTGTCTA	0.13
GCTTCGCA	-0.219
AACAGGGG	-0.0515
AGGGCAAG	-0.0017
ATACGATG	0.0694
GAGCGAGC	0.103
AGCCCGAT	0.0332
TGTCCCAA	-0.025
ATCGTGGG	0.226
ATAGTCTG	-0.0734
CGTATCTC	0.0109
GACTCCTC	0.4
AGAGGCCA	-0.0855
AGTGCGAG	0.114
TCGTCTAA	-0.151

Sequence	PBM E-score
CCGGGATC	0.261
ACCAGAGG	-0.14
ACAATAGG	-0.00659
AATAAAGA	0.128
AATGCATA	0.0748
AGCGGTAA	0.0443
ATAGGCAC	-0.118
AGTTAGCA	-0.123
ACTATACG	0.132
ACTGTTCA	-0.0449
TCGCTAAA	-0.13
CACTCACA	0.264
AGGTCCAT	-0.0892
AGGCCGCA	-0.279
ATTATATA	0.0804
CCGACACA	0.208
CGATATCA	0.0702
CACCGTCC	0.091
AATCGCCG	-0.0215
GCCGGTGA	0.123
AGATAAAA	0.0186
AATTTCGT	-0.155
CGCTTGAG	-0.144
AAGCGACA	0.136
AAGGTAGT	0.107

Sequence	PBM E-score
AACGCAGC	-0.17
AGTAACGA	0.00277
GACACATA	0.197
AGGAACTC	-0.0636
AAACAGCC	-0.0663
GCTACGAA	-0.13
ATGATTGG	0.178
ACTCATCC	0.412
GACCCACC	0.224
GATACCCA	0.127
AACGCTCC	-0.141
CAATCTGG	0.0697
TAGATCAA	0.0192
CACATTAA	0.126
AAAGTGAT	0.1
AAAGCGTA	-0.183
GCACGATA	-0.00878
ACTAAAGC	0.022
AGCCTGAC	-0.0744
GCATGTAA	-0.17
ATCAGGCA	0.183
ACCTCTCT	-0.0884
